Data as given in patent US11685745B2, “Substituted benzoxazole and benzofuran compounds as PDE7 inhibitors” (Dart NeuroScience, LLC, priority 2017, dated 2023).

Target: N-terminal truncated recombinant human PDE7B enzyme (Homo sapiens (Human), UniProt Q9NP56)
Experiment: biochemical

| SMILES | pIC50 |
| --- | --- |
| CCCNC(=O)c1cc2cc(Cl)c3c(c2o1)C1(CCCCC1)NC(=O)N3 [Example 404, 5′-Chloro-7′-oxo-N-propyl-7′,8′-dihydro-6′H-spiro[cyclohexane-1,9′-furo[2,3-f]quinazoline]-2′-carboxamide] | 7.00 to 8.00 |
| O=C1Nc2c(Cl)cc3cc(C(=O)N4CCn5ccnc5C4)oc3c2C2(CCCCC2)N1 [Example 290, 5′-Chloro-2′-{5H,6H,7H,8H-imidazo[1,2-a]pyrazine-7-carbonyl}-7′,8′-dihydro-6′H-spiro[cyclohexane-1,9′-furo[2,3-f]quinazoline]-7′-one] | 7.00 to 8.00 |
| O=C1Nc2c(Cl)cc3cc(CNC4CCOCC4F)oc3c2C2(CCCCC2)N1 (centres unmarked) [Example 577, 5′-Chloro-2′-{[(3-fluorooxan-4-yl)amino]methyl}-7′,8′-dihydro-6′H-spiro[cyclohexane-1,9′-furo[2,3-f]quinazoline]-7′-one] | 7.00 to 8.00 |
| O=C1Nc2c(Cl)cc3nc(CN4CCN(CC(F)F)CC4)oc3c2C2(CCCCC2)N1 [Example 159, 5-Chloro-2-{[4-(2,2-difluoroethyl)piperazin-1-yl]methyl}-7,8-dihydro-6H-spiro[[1,3]oxazolo[5,4-f]quinazoline-9,1′-cyclohexane]-7-one] | 6.00 to 7.00 |
| O=C1Nc2c(Cl)cc3cc(C(=O)N4CCCC(Cn5ccnc5)C4)oc3c2C2(CCCCC2)N1 (centres unmarked) [Example 283, 5′-Chloro-2′-[3-(1H-imidazol-1-ylmethyl)piperidine-1-carbonyl]-7′,8′-dihydro-6′H-spiro[cyclohexane-1,9′-furo[2,3-f]quinazoline]-7′-one] | 7.00 to 8.00 |
| CN(Cc1cc(C2CC2)[nH]n1)C(=O)c1cc2cc(Cl)c3c(c2o1)C1(CCCCC1)NC(=O)N3 [Example 299, 5′-Chloro-N-[(5-cyclopropyl-1H-pyrazol-3-yl)methyl]-N-methyl-7′-oxo-7′,8′-dihydro-6′H-spiro[cyclohexane-1,9′-furo[2,3-f]quinazoline]-2′-carboxamide] | 7.00 to 8.00 |
| O=C1Nc2c(F)cc3nc(CN4CCC(F)(F)CC4)oc3c2C2(CCCCC2)N1 [Example 222, 2-[(4,4-Difluoropiperidin-1-yl)methyl]-5-fluoro-7,8-dihydro-6H-spiro[[1,3]oxazolo[5,4-f]quinazoline-9,1′-cyclohexane]-7-one] | 6.00 to 7.00 |
| CCN(C(=O)c1cc2cc(Cl)c3c(c2o1)C1(CCCCC1)NC(=O)N3)C1CCOC(C)(C)C1 (centres unmarked) [Example 287, 5′-Chloro-N-(2,2-dimethyloxan-4-yl)-N-ethyl-7′-oxo-7′,8′-dihydro-6′H-spiro[cyclohexane-1,9′-furo[2,3-f]quinazoline]-2′-carboxamide] | 7.00 to 8.00 |
| O=C1Nc2c(Cl)cc3nc(CNCC(O)C4CCCCC4)oc3c2C2(CCCCC2)N1 (centres unmarked) [Example 102, 5-Chloro-2-{[(2-cyclohexyl-2-hydroxyethyl)amino]methyl}-7,8-dihydro-6H-spiro[[1,3]oxazolo[5,4-f]quinazoline-9,1′-cyclohexane]-7-one] | 6.00 to 7.00 |
| O=C1Nc2c(Cl)cc3nc(CN4CCN(CC(F)(F)F)CC4)oc3c2C2(CCCCC2)N1 [Example 126, 5-Chloro-2-{[4-(2,2,2-trifluoroethyl)piperazin-1-yl]methyl}-7,8-dihydro-6H-spiro[[1,3]oxazolo[5,4-f]quinazoline-9,1′-cyclohexane]-7-one] | 6.00 to 7.00 |
| O=C1Nc2c(Cl)cc3cc(C(=O)N4CCCC4c4ccco4)oc3c2C2(CCCCC2)N1 (centres unmarked) [Example 416, 5′-Chloro-2′-[2-(furan-2-yl)pyrrolidine-1-carbonyl]-7′,8′-dihydro-6′H-spiro[cyclohexane-1,9′-furo[2,3-f]quinazoline]-7′-one] | 7.00 to 8.00 |
| O=C1Nc2c(Cl)cc3cc(CNC4CCNC4)oc3c2C2(CCCCC2)N1 (centres unmarked) [Example 572, 5′-Chloro-2′-{[(pyrrolidin-3-yl)amino]methyl}-7′,8′-dihydro-6′H-spiro[cyclohexane-1,9′-furo[2,3-f]quinazoline]-7′-one] | 6.00 to 7.00 |
| O=C1Nc2c(Cl)cc3cc(C(=O)N4CCN(C(=O)C5CCCO5)CC4)oc3c2C2(CCCCC2)N1 (centres unmarked) [Example 442, 5′-Chloro-2′-[4-(oxolane-2-carbonyl)piperazine-1-carbonyl]-7′,8′-dihydro-6′H-spiro[cyclohexane-1,9′-furo[2,3-f]quinazoline]-7′-one] | 7.00 to 8.00 |
| O=C1Nc2c(Cl)cc3nc(CNC4CCCOC4)oc3c2C2(CCCCC2)N1 (centres unmarked) [Example 133, 5-Chloro-2-{[(oxan-3-yl)amino]methyl}-7,8-dihydro-6H-spiro[[1,3]oxazolo[5,4-f]quinazoline-9,1′-cyclohexane]-7-one] | 7.00 to 8.00 |
| O=C1Nc2c(Cl)cc3cc(C(=O)NC4CCC(F)(F)CC4)oc3c2C2(CCCCC2)N1 [Example 381, 5′-Chloro-N-(4,4-difluorocyclohexyl)-7′-oxo-7′,8′-dihydro-6′H-spiro[cyclohexane-1,9′-furo[2,3-f]quinazoline]-2′-carboxamide] | 7.00 to 8.00 |
| O=C1Nc2c(Cl)cc3cc(C(=O)N4CCOCC4)oc3c2C2(CCCCC2)N1 [Example 237, 5′-Chloro-2′-(morpholine-4-carbonyl)-7′,8′-dihydro-6′H-spiro[cyclohexane-1,9′-furo[2,3-f]quinazoline]-7′-one] | 7.00 to 8.00 |
| O=C1Nc2c(Cl)cc3cc(C(=O)N4CCN(c5ccccn5)CC4)oc3c2C2(CCCCC2)N1 [Example 311, 5′-Chloro-2′-[4-(pyridin-2-yl)piperazine-1-carbonyl]-7′,8′-dihydro-6′H-spiro[cyclohexane-1,9′-furo[2,3-f]quinazoline]-7′-one] | 7.00 to 8.00 |
| CN(CCC#N)C(=O)c1cc2cc(Cl)c3c(c2o1)C1(CCCCC1)NC(=O)N3 [Example 267, 5′-Chloro-N-(2-cyanoethyl)-N-methyl-7′-oxo-7′,8′-dihydro-6′H-spiro[cyclohexane-1,9′-furo[2,3-f]quinazoline]-2′-carboxamide] | 7.00 to 8.00 |
| O=C1Nc2c(Cl)cc3cc(C(=O)N(CCO)Cc4ccccc4)oc3c2C2(CCCCC2)N1 [Example 438, N-Benzyl-5′-chloro-N-(2-hydroxyethyl)-7′-oxo-7′,8′-dihydro-6′H-spiro[cyclohexane-1,9′-furo[2,3-f]quinazoline]-2′-carboxamide] | 7.00 to 8.00 |
| CCOC(=O)CN(C)Cc1cc2cc(Cl)c3c(c2o1)C1(CCCCC1)NC(=O)N3 [Example 567, Ethyl 2-({5′-chloro-7′-oxo-7′,8′-dihydro-6′H-spiro[cyclohexane-1,9′-furo[2,3-f]quinazoline]-2′-ylmethyl}(methyl)amino)acetate] | 6.00 to 7.00 |
| O=C1Nc2c(Cl)cc3nc(C4CC4)oc3c2C2(CCCCC2)N1 [Example 18, 5′-Chloro-2′-cyclopropyl-6′H-spiro[cyclohexane-1,9′-oxazolo[5,4-f]quinazolin]-7′(8′H)-one] | 6.00 to 7.00 |
| CN1CCN(Cc2nc3cc(Cl)c4c(c3o2)C2(CCCCC2)NC(=O)N4)CC1(C)C [Example 94, 5-Chloro-2-[(3,3,4-trimethylpiperazin-1-yl)methyl]-7,8-dihydro-6H-spiro[[1,3]oxazolo[5,4-f]quinazoline-9,1′-cyclohexane]-7-one] | 6.00 to 7.00 |
| CN(CC(O)c1ccccc1)C(=O)c1cc2cc(Cl)c3c(c2o1)C1(CCCCC1)NC(=O)N3 (centres unmarked) [Example 292, 5′-Chloro-N-(2-hydroxy-2-phenylethyl)-N-methyl-7′-oxo-7′,8′-dihydro-6′H-spiro[cyclohexane-1,9′-furo[2,3-f]quinazoline]-2′-carboxamide] | 7.00 to 8.00 |

pIC50: −log10 of the molar value.
